Measured values from PubChem BioAssay (NCATS).
Where “and” joins values, the source holds several entries; their conditions need not be identical. Equal values may be shown once. This list was built around the results that the source calls inconclusive (neither active nor inactive); the mix of calls is not that of the screen. Potencies beside an inconclusive call are fits to weak or partial responses and may not hold up. Calls of active or inactive are those of the source. Calls come from the whole dose curve; as a rule, active = well fitted inhibition curve with a large enough effect; inconclusive = small, poorly fitted or top-dose-only effect; inactive = flat fitted curve, though single readings scatter.

Each compound was assayed on HaCat (assay: Cytotoxic Profiling of Annotated Libraries Using Quantitative High-Throughput Screening (AID 1296008; note: nearly all actives have a fitted effect of over 60% in size)). Settings: Five cell lines viability, CellTiter-Glo ATP luminescence, 48-72 h; max response: hits give low values.
Summary of the method: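 Cells exposed to compounds for 48 or 72 hr at 37 degrees Celsius. Viability read as ATP-coupled luminescence with CellTiter-Glo after 10 min at room temperature.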
% is set by controls: 0 for no effect and ±100 for the full control effect; potency is the fitted concentration of half-maximal effect; tags give direction and shape of the fitted curve.

SMILES | Potency | max response | outcome
Cc1c(C(=O)Nc2cccc(C(F)(F)F)c2)cc(-c2ccccc2)n1CCCN1CCOCC1 | inconclusive: 13.2 µM [inhibitor, partial curve] and inconclusive: 29.1 µM [inhibitor, single point] | – | –
COC(=O)C(Cl)C(=O)OC | inconclusive: 0.75 µM [inhibitor, full curve, poor fit] | – | –
C=C(C)C(=O)O[C@H]1[C@@H]2[C@H](C)C(=O)O[C@@H]2C[C@@H](C)[C@@H]2C=CC(=O)[C@]21C | inconclusive: 20.2 µM [inhibitor, single point] | – | –
CC1Sc2c(C(=O)O)c(=O)c3cc(F)c(N4CCNCC4)cc3n21 (centres undefined) | – | inactive: 0.258% | –
O=S(=O)(c1ccc(Cl)cc1)c1ccc(Cl)cc1 | inconclusive: 1.74 µM [inhibitor, full curve, poor fit] | – | –
ClC1=C(Cl)[C@]2(Cl)[C@@H]3[C@@H]4C[C@@H]([C@H]5O[C@@H]45)[C@@H]3[C@@]1(Cl)C2(Cl)Cl | inconclusive: 68.6 µM [inhibitor, single point] | – | –
CCN1C[C@]2(COC)[C@H](O)C[C@H](OC)[C@]34[C@@H]5C[C@]6(O)[C@H](OC(=O)c7ccccc7)[C@@H]5[C@@](O)([C@H]([C@H](OC)[C@H]23)[C@@H]14)[C@@H](O)[C@@H]6OC | – | inactive: 1.58% | –
CC1(C)CC/C(=C/c2ccc(Cl)cc2)C1(O)Cn1cncn1 (centres undefined) | inconclusive: 2.41 µM [inhibitor, full curve, poor fit] | – | –
C[C@]12CC[C@H](O)C[C@@]1(O)CC[C@@H]1[C@@H]2CC[C@]2(C)[C@@H](c3ccc(=O)oc3)CC[C@]12O | inconclusive: 0.231 µM [inhibitor, full curve] | – | –
C[C@]12CC[C@H](O[C@@H]3O[C@H](CO)[C@@H](O)[C@H](O)[C@H]3O)CC1=CC[C@@H]1C2CC[C@]2(C)[C@@H](C3=CC(=O)OC3)CC[C@]12O (some centres undefined) | inconclusive: 9.68 µM [inhibitor, single point] | – | –
Cc1ccc(-c2nc3ccc(C)cn3c2CC(=O)N(C)C)cc1 | – | inactive: -0.388% | –
C[C@@H]1CC[C@@]2(OC1)O[C@H]1C[C@H]3[C@@H]4CC=C5C[C@@H](O[C@@H]6O[C@H](CO)[C@@H](O[C@@H]7O[C@@H](C)[C@H](O)[C@@H](O)[C@@H]7O)[C@H](O)[C@@H]6O[C@@H]6O[C@@H](C)[C@H](O)[C@@H](O)[C@@H]6O)CC[C@]5(C)[C@@H]4CC[C@]3(C)[C@@H]1[C@H]2C | inconclusive: 37.2 µM [inhibitor, single point] | – | –
COc1cc2c(cc1O)C1(C)CCC(O)C(C)(C)C1CC2=O (centres undefined) | – | – | inactive
C/C1=C/[C@@H](C)C/C=C/[C@H]2[C@@H]3O[C@]3(C)[C@@H](C)[C@H]3[C@H](Cc4c[nH]c5ccccc45)NC(=O)[C@]32C(=O)/C=C\C(=O)[C@@H]1O | inconclusive: 11.2 µM [inhibitor, partial curve, poor fit] | – | –
Cc1[nH]c2ccc(Cl)cc2c1CCN(C)C | inconclusive: 4.61 µM [inhibitor, single point] | – | –
Nc1ncnc2c1ncn2[C@@H]1O[C@@H]2COP(O)(=S)O[C@H]2[C@H]1O (some centres undefined) | inconclusive: 5.31 µM [inhibitor, single point] | – | –
COC(=O)[C@]12CCCC(C)(C)C1CCc1cc(C(C)C)c(O)c(O)c12 (some centres undefined) | – | – | inactive
CN(C)CCN(C)CCc1ccc(Cl)c(Cl)c1 | – | inactive: -22.4% | –
C=C1C[C@]2(O)[C@@]3(C)CCC(=O)C(C)(C)C3=C(O)C(=O)[C@@]2(C)[C@@H]2C(=O)O[C@@](C)(C(=O)OC)C(=O)[C@@]12C | inconclusive: 1.78 µM [inhibitor, single point] | – | –
c1ccc(CCCN2CCN(CCOC(c3ccccc3)c3ccccc3)CC2)cc1 | inconclusive: 37.2 µM [inhibitor, single point] | – | –

SMILES | Potency | max response | outcome
C/C=C(\C)C(=O)OC1C2C3(C)CCC(OC4CC(OC)C(OC5OC(C)C(O)C(OC)C5O)C(C)O4)CC3CCC23OC32CCC(C(C)=O)C2(C)C1OC(=O)/C(C)=C/C (centres undefined) | – | – | inactive
Cc1cc(C(=O)CN2CCCC2)c(C)n1-c1ccc(F)cc1 | – | inactive: 1.57% and inactive: -29% | –
CO[C@@H]1C[C@H](O[C@H]2CC[C@@]3(C)C(CCC4C3CC[C@]3(C)[C@@H](C5=CC(=O)OC5)[C@@H](OC(C)=O)CC43O)C2)O[C@H](C)[C@@H]1O[C@H]1O[C@H](CO[C@@H]2O[C@H](CO)[C@@H](O)[C@H](O)[C@H]2O)[C@@H](O)[C@H](O)[C@H]1O (some centres undefined) | active: 1.55 µM | – | –
CNC(=O)c1cc(C#N)cc(C)c1NC(=O)c1cc(Br)nn1-c1ncccc1Cl | – | inactive: -17.6% | –
CN1C(=O)C(Cc2ccc3ccccc3c2)N=C(c2ccc(O)cc2)c2cc(Cl)ccc21 (centres undefined) | – | – | inactive
CCN1C[C@]2(COC)CC[C@H](O)[C@@]34C5C[C@@H]6[C@@H](OC)C[C@@](OC(C)=O)(C5[C@@H]6OC(C)=O)[C@H]([C@H](OC)C23)[C@@H]14 (some centres undefined) | inconclusive: 15.9 µM [inhibitor, single point] | – | –
COC1CC(O[C@H]2CC[C@@]3(C)C(CCC4C3CC[C@]3(C)C(C5=CC(=O)OC5)CCC43O)C2)OC(C)C1OC1OC(COC2OC(CO)C(O)C(O)C2O)C(O)C(O)C1O (some centres undefined) | inconclusive: 6.93 µM [inhibitor, single point] | – | –
CO[C@H]1C[C@H](O[C@H]2CC[C@]3(C=O)[C@H]4CC[C@]5(C)[C@@H](C6=CC(=O)OC6)CC[C@]5(O)[C@@H]4CC[C@]3(O)C2)O[C@H](C)[C@H]1O | active: 0.356 µM | – | –
C[C@]12CCC(=O)C=C1CC[C@@H]1[C@@H]2CC[C@@]2(C)[C@H]1CC[C@]2(C)O | – | – | inactive
CC(=O)OC1CC(O)C(C)(C)C2CC(OC(C)=O)C3(C)C(CCC4(C)C(c5ccoc5)C(=O)C5OC543)C12C (centres undefined) | – | inactive: -11.6% | –
COC(=O)C1=COC(C)C2CN3CCC4(C(=O)Nc5ccccc54)C3CC12 (centres undefined) | – | inactive: 2.66% | –
CCC1C2CC3C4N(C)c5ccccc5C45CC(C2C5O)N3C1O (centres undefined) | inconclusive: 4.53 µM [inhibitor, single point] | – | –
COc1ccsc1CNCC[C@@]1(c2ccccn2)CCOC2(CCCC2)C1 | – | inactive: -8.27% | –
CCOC(=O)c1c(C(C#N)=CN)c2ccc(Cl)c(Cl)c2n1C | – | – | inactive
CC(C)(O)[C@H]1O[C@H]2CC[C@@]3(C)[C@@](O)(CC[C@H]4Cc5c([nH]c6ccccc56)[C@@]43C)C2=CC1=O | – | inactive: 0.588% | –
COC1CC(O[C@H]2CC[C@]3(C)C4CC[C@]5(C)[C@@H](C6=CC(=O)OC6)[C@@H](OC(C)=O)C[C@]5(O)C4CC[C@@H]3C2)OC(C)C1O[C@@H]1O[C@H](CO)[C@@H](O)[C@H](O)[C@H]1O (some centres undefined) | active: 1.72 µM | – | –
CO[C@H]1C[C@H](O[C@H]2CC[C@]3(CO)[C@H]4CC[C@]5(C)[C@@H](C6=CC(=O)OC6)CC[C@]5(O)[C@@H]4CC[C@]3(O)C2)O[C@H](C)[C@H]1O | inconclusive: 0.0317 µM [inhibitor, full curve, poor fit] | – | –
CC[C@@H]1C[C@H]2CC[C@H](O2)[C@H](C)C(=O)O[C@@H](C)C[C@@H]2CC[C@@H](O2)[C@@H](C)C(=O)O[C@H](CC)C[C@H]2CC[C@H](O2)[C@H](C)C(=O)O[C@@H](C)C[C@@H]2CC[C@@H](O2)[C@@H](C)C(=O)O1 | active: 1.53 µM | – | –
COC1CC(OC2CCC3(C)C(CCC4C3CCC3(C)C(C5=CC(=O)OC5)C(OC(C)=O)CC43O)C2)OC(C)C1OC1OC(CO)C(O)C(O)C1O (centres undefined) | active: 2.43 µM | – | –
